Results: article PMC9911399, “Two distinct binding modes provide the RNA-binding protein RbFox with extraordinary sequence specificity”
Numbering of substitutions follows the chain as printed; changes in the protein carry UniProt numbers. The list shows a part of the results.

T1: RBFOX1 RRM (Homo sapiens, UniProt Q9NWB1 109-208)
T1 sequence: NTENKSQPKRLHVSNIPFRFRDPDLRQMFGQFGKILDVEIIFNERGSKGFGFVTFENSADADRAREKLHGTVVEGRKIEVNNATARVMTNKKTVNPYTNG

B1: ACAGACC (DNA:RNA)
RNA: GGGAGACCGGAAUUCAGAUUGUCCACAGACCUUAAAUCCCGUCGUAGCCACCA
DNA 1: CAATCTGAATTCCGGTCTCCC
DNA 2: TGGTGGCTACGACGGGATT
B2: CUGCGUG (DNA:RNA)
RNA: GGGAGACCGGAAUUCAGAUUGUCCCUGCGUGUUAAAUCCCGUCGUAGCCACCA
DNA 1: CAATCTGAATTCCGGTCTCCC
DNA 2: TGGTGGCTACGACGGGATT
B3: GUGUCGG (DNA:RNA)
RNA: B2 RNA with C25G, C28U, G29C, U30G
DNA 1: CAATCTGAATTCCGGTCTCCC
DNA 2: TGGTGGCTACGACGGGATT
B4: AAUUUGU (DNA:RNA)
RNA: B1 RNA with C26A, A27U, G28U, A29U, C30G, C31U
DNA 1: CAATCTGAATTCCGGTCTCCC
DNA 2: TGGTGGCTACGACGGGATT
B5: AACCUAA (DNA:RNA)
RNA: B1 RNA with C26A, A27C, G28C, A29U, C30A, C31A
DNA 1: CAATCTGAATTCCGGTCTCCC
DNA 2: TGGTGGCTACGACGGGATT
B6: UUAUGCU (DNA:RNA)
RNA: B1 RNA with A25U, C26U, G28U, A29G, C31U
DNA 1: CAATCTGAATTCCGGTCTCCC
DNA 2: TGGTGGCTACGACGGGATT
B7: GGGCCUG (DNA:RNA)
RNA: B2 RNA with C25G, U26G, G29C
DNA 1: CAATCTGAATTCCGGTCTCCC
DNA 2: TGGTGGCTACGACGGGATT
B8: UUGAACG (DNA:RNA)
RNA: B2 RNA with C25U, C28A, G29A, U30C
DNA 1: CAATCTGAATTCCGGTCTCCC
DNA 2: TGGTGGCTACGACGGGATT
B9: UGGCGGG (DNA:RNA)
RNA: B2 RNA with C25U, U26G, U30G
DNA 1: CAATCTGAATTCCGGTCTCCC
DNA 2: TGGTGGCTACGACGGGATT

The binders below were run against T1, RBFOX1 RRM (assay: EMSA; HiTS-Eq, 1 nM pool, 10 min; buffer printed only for the single-RNA assays: 10 mM Tris pH 7.5, 150 mM NaCl, 3.4 mM EDTA, 0.001% NP-40, 30 C). Conditions: tags: His6 N-terminal (pET28a); label: 5' 32P.
Method in brief: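 Purified RbFox RRM (wild type or mutant) was equilibrated for 10 min in 50 µL with 1 nM of a 5′-radiolabelled pool of RNA with 7 randomized nucleotides, its flanks annealed to DNA oligonucleotides, across increasing protein concentrations. Free RNA was separated by 8% native PAGE, excised, reverse-transcribed, PCR-barcoded and sequenced on an Illumina HiSeq 2500. Relative association constants came from read-count changes of each variant against the control reaction, normalised to the cognate motif.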

Row | Binder | binding signal
1 | B1 | 0.000333 KA relative to UGCAUGU
2 | B2 | 0.035 KA relative to UGCAUGU
3 | B3 | 0.0152 KA relative to UGCAUGU
4 | B4 | 0.00915 KA relative to UGCAUGU
5 | B5 | 0.00115 KA relative to UGCAUGU
6 | B6 | 0.0139 KA relative to UGCAUGU
7 | B7 | 0.0377 KA relative to UGCAUGU
8 | B8 | 0.0189 KA relative to UGCAUGU
9 | B9 | 0.0202 KA relative to UGCAUGU
